Test results reported in the supplement of paper PMC5655136.
These are enrichments in a pooled selection; single values are uncertain.

Test system: NB7
Experiment: fold depletion of shRNA, plasmid library share / infected cells without Dox share (9 days) (ratio); higher = more depleted after infection (more toxic, leaky expression from a Tet-inducible vector; NB7 is a neuroblastoma line without caspase-8)
Protocol: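 Pooled lethality screen in NB7 neuroblastoma cells infected with Dox-inducible pTIP shRNA libraries. The libraries tile every 21-mer of the Venus, CD95L or CD95 ORF / 3'UTR; each hairpin is the 21-nt sense sequence + CTCGAG loop + antisense. Cells were cultured 9 days with or without 100 ng/ml Dox. shRNA representation was measured by deep sequencing of the genomic inserts, normalised to the total reads per subpool and averaged over technical replicates. Fold depletion is the plasmid library share / infected cells without Dox share (mean of 2 biological replicates), and the -Dox/+Dox share ratio is the mean of 4 replicate pairings; higher values mean more depletion (toxicity).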

[1] = shRNA pool: CD95L ORF + CD95L 3'UTR + Venus libraries
[2] = shRNA pool: CD95 ORF + CD95 3'UTR + Venus libraries
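Further: shRNA barcodes quantified by deep sequencing of PCR amplicons from cellular DNA, counts expressed as percent of each subpool, ratio averaged over two biological duplicates.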

Sequence	fold depletion of shRNA [1]	fold depletion of shRNA [2]
ACTTCTTCAAGTCCGCCATGC	1.25	1.43
ACTTCTTTCTCAGGCATCAAA	–	1.83
ACTTGAGTAAATATATCACCA	–	0.807
ACTTGGAAGGCCTGCATCATG	–	0.42
ACTTGGGGTGGCTTTGTCTTC	–	2.34
ACTTTAAATCCTGAAACAGTG	–	1.28
ACTTTGCCTCTAAATTACCTC	–	1.35
ACTTTGGGATTCTTTCCATTA	3.53	–
ACTTTGTATATTCCAAAGTAT	0.387	–
ACTTTGTTTATAACTCTGAGA	–	0.777
ACTTTTTTTGTAACTCTACTG	–	0.766
AGAAAACATGCAGAAAGCACA	–	3.56
AGAAAACATTAAATTATAATG	–	0.744
AGAAAATTCAAACTTCAGAAA	–	1.32
AGAAAATTCAGACTATCATCC	–	1.87
AGAAAGAAGCGTATGACACAT	–	1.95
AGAAAGCACAGAAAGGAAAAC	–	1.67
AGAAAGGAAAACCAAGGTTCT	–	0.87
AGAAAGGAAGTACAGAAAACA	–	0.892
AGAAAGTAGCTTTGTGACATG	–	2.34
AGAAATAATATTTATATTTCT	–	0.982
AGAAATGAAATCCAAAGCTTG	–	1.41
AGAAATTCTAGCCTGGTTTGG	–	3.79
AGAACACCCCCATCGGCGACG	1.83	0.931
AGAACAGAAAGTTCAACTGCT	–	1.88

Sequence	fold depletion of shRNA [1]	fold depletion of shRNA [2]
AGAACATAGAACTCTGGGCTG	2.7	–
AGAACGGCATCAAGGCCAACT	–	5.76
AGAACTCTGGGCTGCCATGTG	4.77	–
AGAACTTCCATTTATGGAGGA	–	1.89
AGAAGAACGGCATCAAGGCCA	–	1.76
AGAAGAAGCTATGACCTTTTG	–	0.874
AGAAGACATGAACCAAGTGGA	2.73	–
AGAAGAGAGGGAACCACAGCA	2.94	–
AGAAGATCATATTTATGTAAA	–	0.617
AGAAGATGTAGATTGTGTGAT	–	1.09
AGAAGCAAATAGGCCACCCCA	2.02	–
AGAAGCATGAAAAAGCAGCTA	2.36	–
AGAAGCGCGATCACATGGTCC	2.95	2.62
AGAAGCGTATGACACATTGAT	–	2.06
AGAAGCTATGACCTTTTGCTG	–	0.971
AGAAGGCCTGGTCAAAGGAGG	1.79	–
AGAAGGGAAGGAGTACACAGA	–	1.44
AGAAGTGGAAATAAACTGCAC	–	0.944
AGAATACCAAGTGCAGATGTA	–	2.25
AGAATGACAATGTCCAAGACA	–	1.39
AGAATGGTGTCAATGAAGCCA	–	0.948
AGAATGTAGATATTGTGAAGT	1.15	–
AGAATGTTGTATTCAGTGAGG	0.713	–
AGAATTTAAATAAGGCTCTAC	–	1.29
AGACAAAGCCCATTTTTCTTC	–	1.08

Sequence	fold depletion of shRNA [1]	fold depletion of shRNA [2]
AGACAAATGGAGGAATATGAC	1.73	–
AGACACAGCAGAACAGAAAGT	–	1.24
AGACACCTATGGAATTGTCCT	0.729	–
AGACCACAGGGTTCAAAATGT	3.58	–
AGACCCCAACGAGAAGCGCGA	2.72	2.12
AGACCCGCGCCGAGGTGAAGT	0.701	0.889
AGACGTTTTTCGGCTTATATA	1.91	–
AGACTAGAGGCTTGCATAATA	1.06	–
AGACTATCATCCTCAAGGACA	–	2.9
AGACTCAGAACTTGGAAGGCC	–	1.07
AGACTGCCCTTAGAAATTCTA	–	2.04
AGACTGCGTGCCCTGCCAAGA	–	1.23
AGACTGTTACTACAGTTGAGA	–	0.896
AGAGAAAATTCAGACTATCAT	–	1.2
AGAGAAAGGAAGTACAGAAAA	–	0.599
AGAGAAAGTAGCTTTGTGACA	–	2.6
AGAGAAGCACTTTGGGATTCT	0.911	–
AGAGAATGTAGATATTGTGAA	0.871	–
AGAGAGAATGTAGATATTGTG	0.892	–
AGAGAGGGAACCACAGCACAG	0.506	–
AGAGATGTTTTGGGGACTCAT	4.78	–
AGAGATTTTACCATATTTCTA	–	1.03
AGAGCCAACATATTTGTAGAT	–	3.23
AGAGGATGAAAGATTAAGATT	–	0.782
AGAGGCCAATGCCCCACTGGC	1.02	–

Sequence	fold depletion of shRNA [1]	fold depletion of shRNA [2]
AGAGGCTGAAAGAGGCCAATG	1.36	–
AGAGGCTTGCATAATAAGCTA	1.31	–
AGAGGGAACCACAGCACAGGC	7.41	–
AGAGTATTACTAGAGCTTTGC	–	1.83
AGAGTATTTAGGCAGATTGAA	1.88	–
AGAGTGAAAAACAACAAATTC	–	1.12
AGATAAGCAAGAGAGATGTTT	1.62	–
AGATACATGGTTGTGACCTGA	3.22	–
AGATACCTGGAACCACCTAAA	–	2.25
AGATACTAACTGCTCTCAGAG	–	1.94
AGATAGTTATAAACTGAAGCA	–	1.08
AGATATTGTGAAGTACATATT	0.518	–
AGATCAAGAATGACAATGTCC	–	1.15
AGATCATATTTATGTAAAGTA	–	0.879
AGATCCGCCACAACATCGAGG	1.52	1.7
AGATCTAACTTGGGGTGGCTT	–	8.78
AGATCTCAAAAAAGCCAATCT	–	2.44
AGATGAGATCAAGAATGACAA	–	2.1
AGATGATAAAATAGATTCTTA	–	0.7
AGATGATGAGCTACTGCACTA	2.61	–
AGATGCACACAGCATCATCTT	1.08	–
AGATGTAAACCAAACTTTTTT	–	0.862
AGATGTAGATTGTGTGATGAA	–	1.16
AGATGTGCATTTTTGTGAAAT	3.54	–
AGATGTTTTGGGGACTCATTT	0.994	–

Sequence	fold depletion of shRNA [1]	fold depletion of shRNA [2]
AGATTAAGATTATGCTCTGGC	–	1.31
AGATTATCGTCCAAAAGTGTT	–	1.23
AGATTATGCTCTGGCATCTAA	–	2.69
AGATTCTCCTTACTACTATCC	–	1.73
AGATTCTTAATAGCTGGCTGT	–	1.24
AGATTCTTATTTTTCCCCCAC	–	1.63
AGATTGAAAAGGACACCTTTT	1.02	–
AGATTGTGTGATGAAGGACAT	–	7.74
AGATTTAAGATTCTCCTTACT	–	1.69
AGATTTTACCATATTTCTAAA	–	0.684
AGATTTTTAATATCTCATGAT	–	0.78
AGCAAAGACCCCAACGAGAAG	–	1.01
AGCAAATAGGCCACCCCAGTC	1.3	–
AGCAACACCAAGTGCAAAGAG	–	1.55
AGCAAGAGAGATGTTTTGGGG	1.52	–
AGCAAGGGCGAGGAGCTGTTC	1.27	–
AGCAATGGTAAAATCATCATC	–	3.42
AGCACAGAAAGGAAAACCAAG	–	0.771
AGCACAGGCCTGTGTCTCCTT	26.7	–
AGCACGACTTCTTCAAGTCCG	1.55	1.15
AGCACTTTGGGATTCTTTCCA	17.8	–
AGCAGAACACCCCCATCGGCG	–	1.36
AGCAGAACAGAAAGTTCAACT	–	1.34
AGCAGAAGAACGGCATCAAGG	2.28	–
AGCAGATACCTGGAACCACCT	–	4.06

Sequence	fold depletion of shRNA [1]	fold depletion of shRNA [2]
AGCAGCACGACTTCTTCAAGT	2.62	3.33
AGCAGCTACCAGGTGTTCTAC	3.16	–
AGCAGCTACCTGGGGGCAGTG	0.288	–
AGCAGGAGAGTATTACTAGAG	–	1.17
AGCAGTGCCAGCTCTCCCTGG	4.94	–
AGCATCATCTTTGGAGAAGCA	1.72	–
AGCATCTTCACTTCTAAATGC	1.92	–
AGCATGTGTATTTCCAGTGCA	1.01	–
AGCATTTTGAGCAGGAGAGTA	–	2.76
AGCCAAAATAGATGAGATCAA	–	1.18
AGCCAACATATTTGTAGATTT	–	0.624
AGCCAATCTTTGTACTCTTGC	–	2.91
AGCCACAACGTCTATATCACC	–	4.39
AGCCACAAGGTCTACATGAGG	5.07	–
AGCCAGACAAATGGAGGAATA	3	–
AGCCAGATGCACACAGCATCA	1.75	–
AGCCATCGGTGAAACTAACAG	1.08	–
AGCCCTGTCCTCCAGGTGAAA	–	2.89
AGCCTGGTTTGGAGATACTAA	–	1.05
AGCGCACCATCTTCTTCAAGG	1.11	0.762
AGCGCGATCACATGGTCCTGC	1.16	0.806
